Target: cell surface (plasma membrane) nucleolin of human tumor cells (human, UniProt P19338)
Assay: cell-based or functional assay

UniProt P19338, sequence (P19338 2-710 limits assumed): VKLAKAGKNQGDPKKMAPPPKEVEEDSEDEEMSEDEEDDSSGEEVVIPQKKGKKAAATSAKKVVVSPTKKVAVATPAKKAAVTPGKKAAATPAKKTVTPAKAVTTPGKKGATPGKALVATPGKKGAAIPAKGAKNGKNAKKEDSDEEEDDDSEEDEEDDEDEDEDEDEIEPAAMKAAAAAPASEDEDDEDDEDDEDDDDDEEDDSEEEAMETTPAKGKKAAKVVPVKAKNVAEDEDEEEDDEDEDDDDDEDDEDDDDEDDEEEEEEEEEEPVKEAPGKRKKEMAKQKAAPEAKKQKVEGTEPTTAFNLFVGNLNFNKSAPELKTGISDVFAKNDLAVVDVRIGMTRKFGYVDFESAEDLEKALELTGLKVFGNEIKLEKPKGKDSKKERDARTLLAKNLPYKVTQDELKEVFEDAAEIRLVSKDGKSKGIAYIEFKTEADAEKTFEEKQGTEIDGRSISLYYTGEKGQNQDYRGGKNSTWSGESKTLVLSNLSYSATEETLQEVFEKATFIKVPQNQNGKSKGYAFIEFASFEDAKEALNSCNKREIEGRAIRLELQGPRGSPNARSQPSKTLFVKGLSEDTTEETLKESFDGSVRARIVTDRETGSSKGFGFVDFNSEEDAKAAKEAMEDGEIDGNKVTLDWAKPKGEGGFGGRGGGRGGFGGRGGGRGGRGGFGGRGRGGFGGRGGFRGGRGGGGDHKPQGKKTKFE

B1: antibody CP1 (purified from human B cells) (antibody, human IgG1, kappa)
heavy: QVQLQESGPGLVKPSQTLSLTCTVSGGSINSGGFYWSWIRQHPGKGLEWIGYISYTGSTYYNPSLKSRVNISADTSKNRFSLKLSSVTAADTAVYYCARDMNDGLQIWGQGTLVTVSA[letters of human IgG1 constant region left out]
light: [letters of about 100 residues left out][letters of about 120 residues left out]
notes: also called CP1M4.2
Question: With B1 as the binder, how does the “IC50, viability of human MV4-11 AML cells (trypan blue counting, 96 h)” value read?
Answer: 0.4 µg/mL
